# Assay results: PMC4336329 (PLoS ONE, 2015)
# Hit rate of the full screen: of about 310,000 compounds, about 14,000 (4.5%) showed an effect of 50% or more. The effect is printed as a negative number. This is one part of the list.
# Molecular target: human ether-à-go-go-related gene (hERG) potassium channel (human, UniProt Q12809)
# Assay: primary screen, population patch clamp on CHO cells stably expressing hERG
# 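Note: peak tail current of the secondary pulse compared with the same well before compound.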
# Sequence of human ether-à-go-go-related gene (hERG) potassium channel (Q12809 whole entry, looked up): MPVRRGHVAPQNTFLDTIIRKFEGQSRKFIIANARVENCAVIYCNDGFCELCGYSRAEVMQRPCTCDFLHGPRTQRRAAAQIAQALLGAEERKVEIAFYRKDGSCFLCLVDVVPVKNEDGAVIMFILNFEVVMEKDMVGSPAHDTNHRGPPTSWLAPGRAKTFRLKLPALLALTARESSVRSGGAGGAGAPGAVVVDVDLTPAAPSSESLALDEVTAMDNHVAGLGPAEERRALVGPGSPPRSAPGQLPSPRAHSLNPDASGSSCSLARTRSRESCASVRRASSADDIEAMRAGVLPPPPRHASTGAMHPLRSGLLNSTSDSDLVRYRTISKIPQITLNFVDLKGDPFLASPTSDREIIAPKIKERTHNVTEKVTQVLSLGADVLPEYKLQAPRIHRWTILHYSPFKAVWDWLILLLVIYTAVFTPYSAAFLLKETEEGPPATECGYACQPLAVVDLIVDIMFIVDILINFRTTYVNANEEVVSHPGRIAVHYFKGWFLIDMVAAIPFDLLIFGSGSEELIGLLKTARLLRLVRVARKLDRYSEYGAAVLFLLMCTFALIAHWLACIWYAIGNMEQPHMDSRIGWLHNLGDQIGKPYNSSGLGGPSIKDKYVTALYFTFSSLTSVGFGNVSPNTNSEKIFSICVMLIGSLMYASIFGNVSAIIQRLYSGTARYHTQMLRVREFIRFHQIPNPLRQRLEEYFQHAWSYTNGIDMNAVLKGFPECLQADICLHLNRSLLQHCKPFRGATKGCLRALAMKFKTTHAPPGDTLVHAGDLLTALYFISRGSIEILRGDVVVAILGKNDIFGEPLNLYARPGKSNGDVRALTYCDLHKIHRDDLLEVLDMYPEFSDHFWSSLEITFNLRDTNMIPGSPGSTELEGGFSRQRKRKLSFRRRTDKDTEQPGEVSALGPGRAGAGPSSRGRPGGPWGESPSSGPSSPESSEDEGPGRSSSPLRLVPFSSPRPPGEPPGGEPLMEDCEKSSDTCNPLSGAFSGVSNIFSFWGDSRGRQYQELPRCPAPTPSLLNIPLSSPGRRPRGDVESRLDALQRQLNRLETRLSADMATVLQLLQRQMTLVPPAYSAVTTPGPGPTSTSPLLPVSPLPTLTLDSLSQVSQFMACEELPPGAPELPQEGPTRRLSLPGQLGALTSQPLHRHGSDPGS
row,SMILES,"hERG current change (%, negative = inhibition) at 10uM"
1,CC(=O)N1CCN(c2ccc(NC(=O)c3cccc(Cl)c3Cl)cc2)CC1,-8.8%
2,CCn1c(SCCC(C)C)nnc1-c1c[nH]c2ccccc12,-0.946%
3,O=C(CC1C(=O)NCCN1C(=O)c1ccccc1)Nc1cc(Cl)ccc1Cl (stereo not shown),-5.98%
4,NC(=O)CSc1nc(-c2ccccc2)nc2c1CCCC2,5.92%
5,CSc1nc(SCC(=O)NC(c2ccccc2)c2ccccc2)c2c3c(sc2n1)CN(C)CC3,-8.86%
6,CCOC(=O)N1CCN(C(=O)COc2cccc3c2CCN(CC)C3=O)CC1,6.35%
7,COCCn1nnnc1C(c1cc2cccc(C)c2[nH]c1=O)N1CCN(c2ccccc2F)CC1 (stereo not shown),-13.8%
8,CCOC(=O)/C=C1\SCC(=O)N1CC(O)CN1C(=O)CS/C1=C\C(=O)OCC (stereo not shown),-14.3%
9,COC(=O)Nc1ccc(S(=O)(=O)N2CCC(C(=O)N3CCCCC3C)CC2)cc1 (stereo not shown),16.3%
10,O=C(Nc1nc2ccccc2s1)C1CC(=O)N(c2ccc(F)cc2)C1 (stereo not shown),-25.6%
11,O=C(O)C(=O)O.O=[N+]([O-])c1ccccc1S(=O)(=O)N1CCN(Cc2ccc3c(c2)OCO3)CC1,-1.78%
12,CCO[C@@H]1OC(C(=O)NCc2ccccc2)=C[C@H](c2ccc3c(c2)OCO3)[C@H]1CCCO,-26.6%
13,CC(=O)N/N=C(/c1ccccc1)C(O)c1ccccc1 (stereo not shown),16%
14,COc1ccc(N2CCN(S(=O)(=O)c3ccc4oc(=O)ccc4c3)CC2)cc1,5.54%
15,COn1c(SCc2ccc(C)cc2C)nc2ccccc2c1=O,7.64%
16,COCc1cc(C)nc(SCc2ccccc2Cl)c1C#N,7.12%
17,NS(=O)(=O)c1ccc(NC(=O)COc2ncnc3c2cnn3-c2ccccc2)cc1,12.1%
18,CCO[C@H]1OC(C(=O)N2CCN(Cc3ccccc3)CC2)=C[C@@H](c2ccccc2)[C@@H]1CCCO,-9.53%
19,C/C(=N\NC(=O)C1(C)NC(C)(C)Cc2ccccc21)c1ccccc1 (stereo not shown),11.8%
20,O=C(CCCN1C(=O)/C(=C/c2ccccc2Cl)SC1=S)N1CCCC1,-11.2%
21,COc1ccc(OCC(=O)N/N=C/C(C)=C/c2ccco2)c(Br)c1,9.89%
22,O=C(O)c1cccc(Nc2nc3ccccc3nc2NS(=O)(=O)c2cccs2)c1,17.5%

row,SMILES,"hERG current change (%, negative = inhibition) at 10uM"
1,Cc1nc2nc(COc3ccccc3)nn2c(C)c1Cl,-44.4%
2,COc1ccc(S(=O)(=O)Nc2ccccc2C(=O)N2CCCC2)cc1C,-5.4%
3,CC(C)(C)NC(=S)Nc1ccc(Nc2ccccc2)cc1,11.2%
4,O=c1c2ccccc2nc(SCc2nnc(-c3ccccc3Br)o2)n1Cc1ccco1,-3.21%
5,Cc1ccc(NC(=O)c2nc[nH]c2C(=O)N2CCc3ccccc3C2)cc1,18.8%
6,COc1ccc(C(=O)CSc2nc3[nH]ncc3c(=O)[nH]2)cc1,-10.4%
7,COc1ccc(C(C(=O)NC2CCCCC2)N(Cc2cccnc2)C(=O)c2snc(C(N)=O)c2N)cc1 (stereo not shown),-11.8%
8,C=CCn1c(NC(=O)CC)c(C(=O)OCC)sc1=S,-4.95%
9,C/C(=N\NC(=O)c1ccccc1C)c1cccnc1,28.5%
10,O=[N+]([O-])c1cc(-c2nc(-c3ccncc3)no2)cc([N+](=O)[O-])c1,-38.5%
11,O=C(NCC1CCCO1)c1nc(Cn2ccc([N+](=O)[O-])n2)no1 (stereo not shown),8.69%
12,CCOc1ccc(CCNC(=O)c2ccc(=O)[nH]c2)cc1OCC,15.4%
13,O=C1CCCC2=C1C(c1ccccn1)Nc1ccc(C(=O)c3ccccc3)cc1N2 (stereo not shown),6.55%
14,CSc1ncc(CN2CCCCC2C(=O)Nc2ccc(Oc3ccccc3)nc2)cn1 (stereo not shown),-11%
15,CC(=O)c1cccc(CN2CCC(n3nccc3NC(=O)c3ccc4c(c3)OCO4)CC2)c1,-7.62%
16,CCOC(=O)c1ccc(NC(=O)c2nc[nH]c2C(=O)N2CCC(C)CC2)cc1,2.94%
17,CCOC(=O)C(C#N)(Cc1cc(OC)cc(OC)c1)Cc1cc(OC)cc(OC)c1,-1.05%
18,COc1ccc(-c2nnn(CC(=O)N(Cc3ccco3)C(C(=O)NCC3CCCO3)c3ccco3)n2)cc1 (stereo not shown),-10.4%
19,O=C(N/N=C\c1cc([N+](=O)[O-])ccc1N1CCCC1)c1ccccn1,-3.3%
20,COc1ccccc1N(C)C(=O)c1cc(S(=O)(=O)N2CCCC2)cn1C,-3.55%
21,CC(=O)Nc1ccc(S(=O)(=O)NCC2CCCO2)cc1 (stereo not shown),18.5%
22,Cc1nc(CCNS(=O)(=O)c2cccnc2)cs1,21.6%

row,SMILES,"hERG current change (%, negative = inhibition) at 10uM"
1,CCOc1cc(/C=C/C(=O)c2ccc(O)cc2)ccc1OCC(=O)N(C)C,-24.6%
2,N#Cc1c2c(c(-n3cnc4ccccc43)n3c1nc1ccccc13)CCC2,0.147%
3,CCCCSc1nc2c(cc1C#N)CCC2,-1.7%
4,Cc1c(NC(=S)SCc2ccccc2)c(=O)n(-c2ccccc2)n1C,26.4%
5,O=C(c1ccc(S(=O)(=O)N2CCC(c3nc4ccccc4[nH]3)CC2)cc1)N1CCOCC1,-3.35%
6,CC(C)OCC1CC(CC(=O)NC(=S)Nc2cccc([N+](=O)[O-])c2)C(=O)O1 (stereo not shown),-36.8%
7,COc1cccc(NC(=O)N2CCC(NC(=O)C(Cc3cccc(C)c3)NC(C)=O)CC2)c1 (stereo not shown),-1.84%
8,O=[N+]([O-])c1ccc(Cl)c(/C=N/n2c(C3CCCCC3)n[nH]c2=S)c1,2.79%
9,CCC(=O)Oc1c(C(=O)CC)cc2c(C)cc(=O)oc2c1C,0.95%
10,Nc1ccccc1-c1nnn(CC(=O)N2CCCc3ccccc32)n1,9.62%
11,CCOCC(=O)N1CCN(Cc2ccc3c(c2)OCO3)CC1,4.23%
12,CCOC(=O)C1CCCN(C(=O)C2CCC(CNS(=O)(=O)c3ccc(NC(C)=O)cc3)CC2)C1 (stereo not shown),-5.84%
13,O=C(NCc1ccccn1)c1cc(-c2ccccc2Cl)on1,-13%
14,Cc1cc(NC(=O)C(C)SCC(=O)Nc2cc(C(F)(F)F)ccc2N2CCOCC2)no1 (stereo not shown),-40.3%
15,COc1ccc(NC(=O)CSc2c(C)n[nH]c2C)cc1,-7.52%
16,O=c1ccn(-c2cccc(C(F)(F)F)c2)nc1-c1ccn(-c2ccccc2)n1,-14.2%
17,CC(C(=O)NC(C)(C)C)N(C(=O)CS(=O)CC(=O)Nc1ccc(F)cc1)C1CCCC1 (stereo not shown),9.18%
18,COc1ccc([C@H]2/C=C\CN(C(=O)C3CCCC3)[C@@H](C)C(=O)N2Cc2ccc(F)cc2)cc1,-36.6%
19,CCCCC(=O)Nc1nnc(-c2ccco2)o1,-0.241%
20,COc1cc(NC(=O)C2CC(c3c(F)cccc3Cl)=NO2)c(OC)cc1Cl (stereo not shown),-9.58%
21,N#CCC(=O)Nc1ccc(C(=O)OCC(=O)Nc2ccccc2-c2ccccc2)cc1,9.2%
22,CCNC(=O)N1CCCC(C(=O)c2ccc(OC)c(OC)c2)C1 (stereo not shown),20.8%

row,SMILES,"hERG current change (%, negative = inhibition) at 10uM"
1,COc1ccc(S(=O)(=O)N2CCC(N3CCN(c4ccccc4)CC3)CC2)cc1,-8.52%
2,CCOC(=O)CN1CCS(=O)(=O)CC1,13.5%
3,COc1ccc(NC(=O)C2=CC(c3ccco3)=NS(=O)(=O)N2C)cc1OC,1.61%
4,Cc1nn(C(C)C(=O)NCC2CCCO2)c(C)c1[N+](=O)[O-] (stereo not shown),8.7%
5,CN(C(=O)CN1C(=O)S/C(=C\c2ccccc2F)C1=O)C1CCS(=O)(=O)C1 (stereo not shown),6.16%
6,CS(=O)(=O)Nc1ccccc1C(=O)Nc1cccc(Cl)c1,-14.9%
7,Nc1ncn(C23CC4CC(CC(C4)C2)C3)n1,-3.31%
8,Cc1ccccc1N(CC(=O)NC1CCCC1)C(=O)c1csnn1,27.7%
9,O=C(O)/C=C/C(=O)Nc1ccc(C(=O)c2ccccc2)cc1,3.18%
10,O=S(=O)(Nc1ccccc1N1CCOCC1)c1ccc(Cl)s1,-4.96%
11,Nc1nc(Cl)cc(N2CCC(c3cc(-c4ccc(Cl)cc4Cl)n[nH]3)CC2)n1,24.3%
12,COc1ccc(NC(=O)C2CCOC2=O)cc1 (stereo not shown),1.57%
13,CCN(C(=O)CCS(=O)(=O)c1cc2c(cc1Cl)NC(=O)CO2)c1ccccc1,-21.8%
14,CC1(C)CC(NC(=O)c2cccc(S(=O)(=O)N(Cc3ccccc3)c3ccccc3)c2)CC(C)(C)N1,-45.3%
15,COC(=O)CSc1nc(N)c2c3c(sc2n1)C(c1ccccc1)SC(c1ccccc1)C3 (stereo not shown),29.1%
16,COc1cc(/C=N/NC(=O)CSc2cc(C)c(Br)cc2C)ccc1O,-14.4%
17,CCCC/C(O)=C1\C(=O)CC(C)(C)CC1=Nc1ccc(N)cc1,-11.4%
18,CCCCC(CC)C(=O)N1CCN(C(=O)c2ccco2)CC1 (stereo not shown),-8.89%
19,Cc1cc(C(=O)COC(=O)c2ccc(F)cc2F)c(C)n1C1CC1,-0.281%
